Laboratory results from the antibiotic and cytotoxicity screens of Wong et al. (2023).
The list shows a part of the results.

Columns and labels:
HSkMC = human skeletal muscle cells; test: cytotoxicity call (relative viability < 0.9); conditions: 10 µM
HepG2 = test: cytotoxicity call (relative viability < 0.9); conditions: 10 µM
S. aureus RN4220 = test: growth inhibition call (relative growth <= 0.2); conditions: 50 µM

SMILES | cytotoxicity call (HSkMC) | cytotoxicity call (HepG2) | growth inhibition call (S. aureus RN4220)
C=CC1=C(C)c2cc3[nH]c(cc4nc(cc5[nH]c(cc1n2)c(C)c5CCC(=O)O)C(CCC(=O)O)=C4C)c(C)c3C=C | inactive | active | inactive
Cc1noc(C)c1NC(=O)Nc1ccc2c(c1)C(=O)N([C@H](C)CO)C[C@H](C)[C@@H](CN(C)Cc1ccc(Oc3ccccc3)cc1)O2 | inactive | inactive | inactive
C[C@H]1CN([C@@H](C)CO)S(=O)(=O)c2ccc(C#CC3(O)CCCC3)cc2O[C@H]1CN(C)C(=O)c1ccncc1 | inactive | inactive | inactive
C[C@@H]1CCCCO[C@H](CN(C)S(=O)(=O)c2ccc(F)cc2)[C@H](C)CN([C@@H](C)CO)C(=O)c2cc(NS(C)(=O)=O)ccc2O1 | inactive | inactive | inactive
C1CCC(C(CC2CCCCN2)C2CCCCC2)CC1.O=C(O)C=CC(=O)O (configuration not stated) | active | active | active
N[C@H]1CS(=O)(=O)c2ccccc21 | inactive | inactive | inactive
O=C(C[C@H]1CC[C@@H]2[C@H](COC[C@H](O)CN2Cc2cc(F)ccc2F)O1)N[C@@H]1CCN(Cc2ccccc2)C1 | inactive | inactive | inactive
CCCNC(=O)Nc1ccc2c(c1)OC[C@@H](C)N(Cc1ccc(-c3ccccn3)cc1)C[C@H](C)[C@@H](OC)CN(C)C2=O | inactive | inactive | inactive
O=C(O)CCc1nc(-c2ccccc2)c(-c2ccccc2)o1 | inactive | inactive | inactive
COc1ccc(NC(=O)N(C)C[C@@H]2Oc3ccc(NC(=O)CCN4CCOCC4)cc3CC(=O)N([C@@H](C)CO)C[C@@H]2C)cc1 | inactive | inactive | inactive
C[C@@H]1CN([C@@H](C)CO)C(=O)c2cc(-c3cncnc3)cnc2O[C@@H]1CN(C)C(=O)Nc1ccc2c(c1)OCO2 | inactive | inactive | inactive
O=C(C[C@H]1CC[C@H]2[C@@H](COC[C@@H](O)CN2S(=O)(=O)c2ccccc2)O1)N1CCc2ccccc2C1 | inactive | inactive | inactive
COc1ccc(CN(C)C[C@H]2Oc3ccc(NC(=O)Nc4cccc5ccccc45)cc3C(=O)N([C@@H](C)CO)C[C@@H]2C)cc1 | inactive | inactive | inactive
COc1cccc(S(=O)(=O)N(C)C[C@@H]2OCc3cn(nn3)CCCC(=O)N([C@@H](C)CO)C[C@@H]2C)c1 | inactive | inactive | inactive
COc1ccc(S(=O)(=O)N(C)C[C@H]2OCCCC[C@H](C)Oc3ccc(NC(=O)Nc4ccc(C(F)(F)F)cc4)cc3C(=O)N([C@H](C)CO)C[C@H]2C)cc1 | inactive | inactive | inactive
COc1ccc(S(=O)(=O)N(C)C[C@H]2Oc3ccc(NC(=O)Cn4cnnn4)cc3CC(=O)N([C@H](C)CO)C[C@H]2C)cc1 | inactive | inactive | inactive
COc1ccc(S(=O)(=O)N(C)C[C@H]2Oc3ccc(NC(=O)Cc4ccccc4)cc3CC(=O)N([C@@H](C)CO)C[C@H]2C)cc1 | inactive | inactive | inactive
C[C@@H]1CN([C@@H](C)CO)C(=O)Cc2cc(NC(=O)CCCCCC(=O)Nc3ccccc3N)ccc2O[C@@H]1CN(C)CC1CCCCC1 | inactive | active | inactive
COCC(=O)N1C[C@H](C)[C@@H](OC)CN(C)C(=O)c2ccc(NC(=O)Nc3ccccc3)cc2OC[C@H]1C | inactive | inactive | inactive
